Results reported in article PMC4336329 (PLoS ONE, 2015).
Out of some 310,000 compounds screened, about 14,000 (4.5%) showed an effect of 50% or more. The effect is printed as a negative number. This is one part of the list.

biological target: human ether-à-go-go-related gene (hERG) potassium channel (human, UniProt Q12809); experiment: primary screen, population patch clamp on CHO cells stably expressing hERG
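Further: peak tail current of the secondary pulse compared with the same well before compound.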

human ether-à-go-go-related gene (hERG) potassium channel, sequence (Q12809 whole entry, looked up): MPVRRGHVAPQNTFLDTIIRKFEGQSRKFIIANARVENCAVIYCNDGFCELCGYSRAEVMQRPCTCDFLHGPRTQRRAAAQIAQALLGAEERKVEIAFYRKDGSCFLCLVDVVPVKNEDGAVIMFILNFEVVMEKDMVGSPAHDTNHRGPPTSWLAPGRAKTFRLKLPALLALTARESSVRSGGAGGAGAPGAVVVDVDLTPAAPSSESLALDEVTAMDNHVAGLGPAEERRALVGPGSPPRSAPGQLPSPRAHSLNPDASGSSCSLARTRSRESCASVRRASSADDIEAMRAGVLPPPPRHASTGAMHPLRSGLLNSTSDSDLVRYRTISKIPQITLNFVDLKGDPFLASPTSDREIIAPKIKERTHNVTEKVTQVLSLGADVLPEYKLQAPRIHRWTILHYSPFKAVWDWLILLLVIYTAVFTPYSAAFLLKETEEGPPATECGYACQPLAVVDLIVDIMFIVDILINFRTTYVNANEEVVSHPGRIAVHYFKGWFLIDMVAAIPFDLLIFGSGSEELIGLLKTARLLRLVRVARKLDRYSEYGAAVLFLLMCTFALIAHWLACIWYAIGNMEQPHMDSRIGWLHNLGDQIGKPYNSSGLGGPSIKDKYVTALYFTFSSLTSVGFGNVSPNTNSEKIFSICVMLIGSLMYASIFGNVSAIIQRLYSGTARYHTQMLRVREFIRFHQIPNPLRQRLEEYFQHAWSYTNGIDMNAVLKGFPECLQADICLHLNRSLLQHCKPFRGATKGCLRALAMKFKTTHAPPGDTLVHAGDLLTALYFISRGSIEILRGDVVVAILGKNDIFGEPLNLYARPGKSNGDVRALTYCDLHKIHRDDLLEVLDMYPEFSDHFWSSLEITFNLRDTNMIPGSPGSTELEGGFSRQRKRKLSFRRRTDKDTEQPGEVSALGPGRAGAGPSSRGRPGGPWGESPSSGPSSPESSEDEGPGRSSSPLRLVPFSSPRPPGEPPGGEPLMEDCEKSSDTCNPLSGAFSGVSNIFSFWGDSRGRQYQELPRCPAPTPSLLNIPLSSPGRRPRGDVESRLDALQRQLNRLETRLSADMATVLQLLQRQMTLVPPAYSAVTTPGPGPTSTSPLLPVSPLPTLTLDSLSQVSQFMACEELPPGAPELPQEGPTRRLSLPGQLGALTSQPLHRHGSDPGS

| Structure (SMILES) | hERG current change (%, negative = inhibition) at 10uM [%] |
| --- | --- |
| CC(C)n1c(O)c(/C=C2\C=Nc3ccccc32)sc1=Nc1ccccc1 | 19.6 |
| Fc1ccc2nc(N3CCCCC3)sc2c1 | 5.89 |
| COCCNC(=S)N/N=C(\C)c1cccc([N+](=O)[O-])c1 | -70.4 |
| O=C(NCC(c1ccco1)N1CCc2ccccc2C1)c1cccc(F)c1 (centres unmarked) | -63.5 |
| COc1cc(C2C(C(=O)OCCC#N)=C(C)NC3=C2S(=O)(=O)c2ccccc23)cc(OC)c1OC (centres unmarked) | -15.2 |
| Cc1cc(-c2ccccc2)nc2cc(C(=O)NCCCn3ccnc3)nn12 | -22.2 |
| COc1ccc(-c2nc(-c3ccccn3)nc(N3CCN(C)CC3)c2C#N)cc1 | -28.7 |
| CCOC(=O)N1CCN(C(=S)NCCOC)CC1 | 13 |
| COc1cc(-c2nc3ccc4ccccc4c3c3c2CCC3)ccc1O | 13.8 |
| COc1ccc(CCNCC(=O)Nc2ccc(OC(F)(F)F)cc2)cc1OC.Cl | -42.2 |
| O=C(CCCC(=O)N(CC(=O)NC1CCCC1)c1ccc(F)c(Cl)c1)Nc1ccccn1 | -9.24 |
| Cc1ccc(S(=O)(=O)c2cccc(S(=O)(=O)N3CCOCC3)c2)cc1S(=O)(=O)N1CCOCC1 | 13.3 |
| O=C(COc1cccc(Cl)c1Cl)Nc1ccc2c(c1)CCC2 | 10.2 |
| COc1ccccc1CNS(=O)(=O)c1c(C)nc2sccn2c1=O | 6.31 |
| Cc1cc2oc(=O)cc(CN3CCCCC3)c2cc1O | -1.42 |
| Cc1ccc(S(=O)(=O)N[C@@H](Cc2ccccc2)C(=O)N2CCC(C(=O)N[C@H](C(=O)O)C(C)O)CC2)cc1 (some centres unmarked) | 16.5 |
| CC(=O)Oc1ccc(C(=O)Nc2cc(C)on2)cc1 | 16.6 |
| CCN1CCN(S(=O)(=O)c2ccc(S(=O)(=O)NC3CC3)cc2)CC1 | 7.03 |
| O=C(CSc1cccc(C(F)(F)F)c1)Nc1ccc(Cl)cc1Cl | 8.02 |
| COc1cccc(C2NC(=O)NC(C)=C2C(=O)OCC2CCCCC2)c1 (centres unmarked) | 18.1 |
| O=C(N/N=C/c1ccccc1O)c1cccc2ccccc12 | 18.2 |
| COc1ccc(CCN(C)C(=O)CNC(=O)c2ccc3c(c2)OCO3)cc1OC | -5.07 |

| Structure (SMILES) | hERG current change (%, negative = inhibition) at 10uM [%] |
| --- | --- |
| Cc1cc(C)cc(NC(=O)C(OC(=O)c2cc[n+]([O-])cc2)c2ccccc2)c1 (centres unmarked) | -74 |
| CCc1ccc(C2C(C#N)=C(N)SC(N)=C2C#N)s1 | 20.9 |
| COc1ccccc1NC(=O)c1ccc(NC(=O)c2ccco2)cc1 | -0.0528 |
| COc1ccc2nc(NC(=O)CC3Oc4ccccc4NC3=O)sc2c1 (centres unmarked) | 20.9 |
| O=C1CCc2cc(S(=O)(=O)Nc3ccc(C(F)(F)F)cc3)cc3c2N1CC3 | -2.69 |
| Cn1c(=O)c2c(nc(Br)n2CCSc2nc3ccccc3o2)n(C)c1=O | -7.12 |
| N#Cc1cccc(C(=O)OCC(=O)NC(=O)NC2CCCCC2)c1 | -4.44 |
| COc1ccccc1OCCCC(=O)Nc1ccc([N+](=O)[O-])cc1Br | -7.68 |
| COCCNC(=O)c1c(CS(=O)(=O)c2ccccc2)noc1C(=O)NCc1ccccc1 | 8.05 |
| Cc1nc(N2CCOCC2)nc(OCCN(C)C)c1[N+](=O)[O-] | 3.34 |
| CCN(C(=O)CSc1nnc(C2CC2)n1-c1ccccc1)C1CCS(=O)(=O)C1 (centres unmarked) | 0.453 |
| Cn1c(=O)cc(OCC(=O)N2CCCc3ccccc32)c2ccccc21 | -3.03 |
| COc1ccccc1C(=O)Nc1ccc(NC(=O)C2CCCCC2)nc1 | 11.8 |
| CC(C)(C)c1nnc2sc(SCC(=O)c3ccc(Cl)cc3)nn2c1=O | 14.5 |
| NC(=O)CC(NC(=O)Cc1cccc2ccccc12)c1ccc(N2CCC(N3CCCCC3)CC2)c([N+](=O)[O-])c1 (centres unmarked) | 4.24 |
| CCCCc1c(O)c2cccc3c2n(c1=O)CCC3 | 17 |
| Cc1nnsc1NC(=O)OCC(C)(C)C | 4.6 |
| CC1(C)C2CC=C(/C=N/NC(=O)c3ccccc3O)C1C2 (centres unmarked) | 19 |
| O=C(NCc1ccccc1)NC1(C(=O)N2CCN(c3ccccc3)CC2)CCCCC1 | -18.4 |
| O=C(O)c1c2c(nc3ccccc13)/C(=C/c1ccccc1[N+](=O)[O-])CCC2 | 1.89 |
| O=C(c1ccc(S(=O)(=O)N2CCOCC2)cc1)N1CCN(C2=NS(=O)(=O)c3ccccc32)CC1 | 3.52 |
| Cc1ccc(S(=O)(=O)Nc2ccc(N(C)S(=O)(=O)c3ccc(C)cc3)cc2)cc1 | -5.95 |
